Here are results for eight molecules from the supplement of paper PMC12423691.

The list shows a part of the results. Binding of human transcription factors and regulators to the viral nucleoprotein by AlphaScreen, crude cell-free proteins, amounts not normalised, one pass. Fold of the Venus control; higher = more signal. No active / inactive call. Single-pass screen; sequences are the whole Swiss-Prot entries looked up by name.

To fix the notation:
B1: RFXAP, O00287 (protein)
chain: MEAQGVAEGAGPGAASGVPHPAALAPAAAPTLAPASVAAAASQFTLLVMQPCAGQDEAAAPGGSVGAGKPVRYLCEGAGDGEEEAGEDEADLLDTSDPPGGGESAASLEDLEDEETHSGGEGSSGGARRRGSGGGSMSKTCTYEGCSETTSQVAKQRKPWMCKKHRNKMYKDKYKKKKSDQALNCGGTASTGSAGNVKLEESADNILSIVKQRTGSFGDRPARPTLLEQVLNQKRLSLLRSPEVVQFLQKQQQLLNQQVLEQRQQQFPGTSM
B2: DDN, O94850 (protein)
chain: MLDGPLFSEGPDSPRELQDEESGSCLWVQKSKLLVIEVKTISCHYSRRAPSRQPMDFQASHWARGFQNRTCGPRPGSPQPPPRRPWASRVLQEATNWRAGPLAEVRAREQEKRKAASQEREAKETERKRRKAGGARRSPPGRPRPEPRNAPRVAQLAGLPAPLRPERLAPVGRAPRPSAQPQSDPGSAWAGPWGGRRPGPPSYEAHLLLRGSAGTAPRRRWDRPPPYVAPPSYEGPHRTLGTKRGPGNSQVPTSSAPAATPARTDGGRTKKRLDPRIYRDVLGAWGLRQGQGLLGGSPGCGAARARPEPGKGVVEKSLGLAAADLNSGSDSHPQAKATGSAGTEIAPAGSATAAPCAPHPAPRSRHHLKGSREGKEGEQIWFPKCWIPSPKKQPPRHSQTLPRPWAPGGTGWRESLGLGEGAGPETLEGWKATRRAHTLPRSSQGLSRGEGVFVIDATCVVIRSQYVPTPRTQQVQLLPSGVTRVVGDSPSQSKPGKEEGEGATVFPSPCQKRLSSSRLLHQPGGGRGGEAEGGRPGDSTLEERTFRILGLPAPEVNLRDAPTQPGSPEHQALGPAASGAQGRAEGSEVAVVQRRAGRGWARTPGPYAGALREAVSRIRRHTAPDSDTDEAEELSVHSGSSDGSDTEAPGASWRNERTLPEVGNSSPEEDGKTAELSDSVGEILDVISQTEEVLFGVRDIRGTQQGNRKRQ
B3: GLI2, P10070 (protein)
chain: METSASATASEKQEAKSGILEAAGFPDPGKKASPLVVAAAAAAAVAAQGVPQHLLPPFHAPLPIDMRHQEGRYHYEPHSVHGVHGPPALSGSPVISDISLIRLSPHPAGPGESPFNAPHPYVNPHMEHYLRSVHSSPTLSMISAARGLSPADVAQEHLKERGLFGLPAPGTTPSDYYHQMTLVAGHPAPYGDLLMQSGGAASAPHLHDYLNPVDVSRFSSPRVTPRLSRKRALSISPLSDASLDLQRMIRTSPNSLVAYINNSRSSSAASGSYGHLSAGALSPAFTFPHPINPVAYQQILSQQRGLGSAFGHTPPLIQPSPTFLAQQPMALTSINATPTQLSSSSNCLSDTNQNKQSSESAVSSTVNPVAIHKRSKVKTEPEGLRPASPLALTQGQVSGHGSCGCALPLSQEQLADLKEDLDRDDCKQEAEVVIYETNCHWEDCTKEYDTQEQLVHHINNEHIHGEKKEFVCRWQACTREQKPFKAQYMLVVHMRRHTGEKPHKCTFEGCSKAYSRLENLKTHLRSHTGEKPYVCEHEGCNKAFSNASDRAKHQNRTHSNEKPYICKIPGCTKRYTDPSSLRKHVKTVHGPDAHVTKKQRNDVHLRTPLLKENGDSEAGTEPGGPESTEASSTSQAVEDCLHVRAIKTESSGLCQSSPGAQSSCSSEPSPLGSAPNNDSGVEMPGTGPGSLGDLTALDDTPPGADTSALAAPSAGGLQLRKHMTTMHRFEQLKKEKLKSLKDSCSWAGPTPHTRNTKLPPLPGSGSILENFSGSGGGGPAGLLPNPRLSELSASEVTMLSQLQERRDSSTSTVSSAYTVSRRSSGISPYFSSRRSSEASPLGAGRPHNASSADSYDPISTDASRRSSEASQCSGGSGLLNLTPAQQYSLRAKYAAATGGPPPTPLPGLERMSLRTRLALLDAPERTLPAGCPRPLGPRRGSDGPTYGHGHAGAAPAFPHEAPGGGARRASDPVRRPDALSLPRVQRFHSTHNVNPGPLPPCADRRGLRLQSHPSTDGGLARGAYSPRPPSISENVAMEAVAAGVDGAGPEADLGLPEDDLVLPDDVVQYIKAHASGALDEGTGQVYPTESTGFSDNPRLPSPGLHGQRRMVAADSNVGPSAPMLGGCQLGFGAPSSLNKNNMPVQWNEVSSGTVDALASQVKPPPFPQGNLAVVQQKPAFGQYPGYSPQGLQASPGGLDSTQPHLQPRSGAPSQGIPRVNYMQQLRQPVAGSQCPGMTTTMSPHACYGQVHPQLSPSTISGALNQFPQSCSNMPAKPGHLGHPQQTEVAPDPTTMGNRHRELGVPDSALAGVPPPHPVQSYPQQSHHLAASMSQEGYHQVPSLLPARQPGFMEPQTGPMGVATAGFGLVQPRPPLEPSPTGRHRGVRAVQQQLAYARATGHAMAAMPSSQETAEAVPKGAMGNMGSVPPQPPPQDAGGAPDHSMLYYYGQIHMYEQDGGLENLGSCQVMRSQPPQPQACQDSIQPQPLPSPGVNQVSSTVDSQLLEAPQIDFDAIMDDGDHSSLFSGALSPSLLHSLSQNSSRLTTPRNSLTLPSIPAGISNMAVGDMSSMLTSLAEESKFLNMMT
B4: TSC22D3, Q99576 (protein)
chain: MNTEMYQTPMEVAVYQLHNFSISFFSSLLGGDVVSVKLDNSASGASVVAIDNKIEQAMDLVKNHLMYAVREEVEILKEQIRELVEKNSQLERENTLLKTLASPEQLEKFQSCLSPEEPAPESPQVPEAPGGSAV
B5: MLXIPL, Q9NP71 (protein)
chain: MAGALAGLAAGLQVPRVAPSPDSDSDTDSEDPSLRRSAGGLLRSQVIHSGHFMVSSPHSDSLPRRRDQEGSVGPSDFGPRSIDPTLTRLFECLSLAYSGKLVSPKWKNFKGLKLLCRDKIRLNNAIWRAWYIQYVKRRKSPVCGFVTPLQGPEADAHRKPEAVVLEGNYWKRRIEVVMREYHKWRIYYKKRLRKPSREDDLLAPKQAEGRWPPPEQWCKQLFSSVVPVLLGDPEEEPGGRQLLDLNCFLSDISDTLFTMTQSGPSPLQLPPEDAYVGNADMIQPDLTPLQPSLDDFMDISDFFTNSRLPQPPMPSNFPEPPSFSPVVDSLFSSGTLGPEVPPASSAMTHLSGHSRLQARNSCPGPLDSSAFLSSDFLLPEDPKPRLPPPPVPPPLLHYPPPAKVPGLEPCPPPPFPPMAPPTALLQEEPLFSPRFPFPTVPPAPGVSPLPAPAAFPPTPQSVPSPAPTPFPIELLPLGYSEPAFGPCFSMPRGKPPAPSPRGQKASPPTLAPATASPPTTAGSNNPCLTQLLTAAKPEQALEPPLVSSTLLRSPGSPQETVPEFPCTFLPPTPAPTPPRPPPGPATLAPSRPLLVPKAERLSPPAPSGSERRLSGDLSSMPGPGTLSVRVSPPQPILSRGRPDSNKTENRRITHISAEQKRRFNIKLGFDTLHGLVSTLSAQPSLKVSKATTLQKTAEYILMLQQERAGLQEEAQQLRDEIEELNAAINLCQQQLPATGVPITHQRFDQMRDMFDDYVRTRTLHNWKFWVFSILIRPLFESFNGMVSTASVHTLRQTSLAWLDQYCSLPALRPTVLNSLRQLGTSTSILTDPGRIPEQATRAVTEGTLGKPL
B6: TRAF1, Q13077 (protein)
chain: MASSSGSSPRPAPDENEFPFGCPPTVCQDPKEPRALCCAGCLSENPRNGEDQICPKCRGEDLQSISPGSRLRTQEKAHPEVAEAGIGCPFAGVGCSFKGSPQSVQEHEVTSQTSHLNLLLGFMKQWKARLGCGLESGPMALEQNLSDLQLQAAVEVAGDLEVDCYRAPCSESQEELALQHFMKEKLLAELEGKLRVFENIVAVLNKEVEASHLALATSIHQSQLDRERILSLEQRVVELQQTLAQKDQALGKLEQSLRLMEEASFDGTFLWKITNVTRRCHESACGRTVSLFSPAFYTAKYGYKLCLRLYLNGDGTGKRTHLSLFIVIMRGEYDALLPWPFRNKVTFMLLDQNNREHAIDAFRPDLSSASFQRPQSETNVASGCPLFFPLSKLQSPKHAYVKDDTMFLKCIVETST
B7: OVOL2, Q9BRP0 (protein)
chain: MPKVFLVKRRSLGVSVRSWDELPDEKRADTYIPVGLGRLLHDPPEDCRSDGGSSSGSGSSSAGEPGGAESSSSPHAPESETPEPGDAEGPDGHLATKQRPVARSKIKFTTGTCSDSVVHSCDLCGKGFRLQRMLNRHLKCHNQVKRHLCTFCGKGFNDTFDLKRHVRTHTGIRPYKCNVCNKAFTQRCSLESHLKKIHGVQQQYAYKQRRDKLYVCEDCGYTGPTQEDLYLHVNSAHPGSSFLKKTSKKLAALLQGKLTSAHQENTSLSEEEERK
B8: TRIM32, Q13049 (protein)
chain: MAAAAASHLNLDALREVLECPICMESFTEEQLRPKLLHCGHTICRQCLEKLLASSINGVRCPFCSKITRITSLTQLTDNLTVLKIIDTAGLSEAVGLLMCRSCGRRLPRQFCRSCGLVLCEPCREADHQPPGHCTLPVKEAAEERRRDFGEKLTRLRELMGELQRRKAALEGVSKDLQARYKAVLQEYGHEERRVQDELARSRKFFTGSLAEVEKSNSQVVEEQSYLLNIAEVQAVSRCDYFLAKIKQADVALLEETADEEEPELTASLPRELTLQDVELLKVGHVGPLQIGQAVKKPRTVNVEDSWAMEATASAASTSVTFREMDMSPEEVVASPRASPAKQRGPEAASNIQQCLFLKKMGAKGSTPGMFNLPVSLYVTSQGEVLVADRGNYRIQVFTRKGFLKEIRRSPSGIDSFVLSFLGADLPNLTPLSVAMNCQGLIGVTDSYDNSLKVYTLDGHCVACHRSQLSKPWGITALPSGQFVVTDVEGGKLWCFTVDRGSGVVKYSCLCSAVRPKFVTCDAEGTVYFTQGLGLNLENRQNEHHLEGGFSIGSVGPDGQLGRQISHFFSENEDFRCIAGMCVDARGDLIVADSSRKEILHFPKGGGYSVLIREGLTCPVGIALTPKGQLLVLDCWDHCIKIYSYHLRRYSTP

The assay has as its target nucleoprotein N of Crimean-Congo hemorrhagic fever virus. Description: AlphaScreen luminescence signal relative to Venus negative control (fold); higher = stronger binding to CCHFV N. The protocol:
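AlphaScreen binding of cell-free made, FLAG-GST-tagged human transcription factors and regulators (crude translation products) to biotinylated N protein; signal as fold of the FLAG-GST-Venus control. One pass.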
A general note: Bead proximity is the source of the signal in Alpha formats.
The molecule B1 registered an AlphaScreen luminescence signal of 18.3.
As for B2, the AlphaScreen luminescence signal is 2.37.
In the case of B3 it was 3.44; in that of B4, 1.26.
As for B5, the AlphaScreen luminescence signal turned out to be 2.05.
In the case of B6 it was 1.58; in that of B7, 5.58.
To B8 belongs 1.95.
